Several values for one entry are separate records, joined by “and”; a condition that tells them apart may be missing. Equal values may be shown once. Out of some 110,000 compounds screened, about 230 (0.21%) showed an effect of 50% or more. This is one part of the list. Where a SMILES comes first, the peptide text is derived from it.
These molecules were tested against DPAP1 (Plasmodium falciparum, UniProt Q8IIJ9) (assay: primary screen, percent inhibition; read by cleavage of a fluorogenic dipeptide substrate; higher = more effect of the substance).
Chain of DPAP1 (Q8IIJ9 whole entry, looked up): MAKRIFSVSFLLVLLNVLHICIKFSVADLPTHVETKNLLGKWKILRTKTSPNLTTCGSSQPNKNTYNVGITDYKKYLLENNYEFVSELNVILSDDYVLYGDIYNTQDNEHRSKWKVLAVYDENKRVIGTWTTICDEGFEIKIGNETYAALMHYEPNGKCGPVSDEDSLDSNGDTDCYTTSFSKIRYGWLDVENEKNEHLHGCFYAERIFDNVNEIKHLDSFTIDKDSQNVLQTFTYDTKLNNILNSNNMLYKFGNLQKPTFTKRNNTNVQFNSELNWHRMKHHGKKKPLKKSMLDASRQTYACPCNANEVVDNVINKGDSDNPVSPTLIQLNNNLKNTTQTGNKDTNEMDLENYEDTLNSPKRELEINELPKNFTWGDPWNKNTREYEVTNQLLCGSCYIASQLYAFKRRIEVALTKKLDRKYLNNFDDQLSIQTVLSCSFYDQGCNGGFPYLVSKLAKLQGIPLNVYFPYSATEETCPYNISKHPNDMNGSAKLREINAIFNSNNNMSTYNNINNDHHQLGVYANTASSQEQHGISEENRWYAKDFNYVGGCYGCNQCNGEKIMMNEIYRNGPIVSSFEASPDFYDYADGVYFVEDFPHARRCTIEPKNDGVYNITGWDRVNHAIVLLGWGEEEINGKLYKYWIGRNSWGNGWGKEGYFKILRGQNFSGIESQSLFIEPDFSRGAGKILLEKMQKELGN
Parameters: species or system P. falciparum D10 trophozoite lysates; single well
O=C(O)c1ccccc1C(=O)Nc1ccc(N2CCN(c3ccc(F)cc3)CC2)cc1 was tested, and the “% Inhibition @ 10 uM” value was -3.92%. For Clc1ccc(C2=Nn3c(nnc3-c3ccc4c(c3)OCO4)SC2)s1, the “% Inhibition @ 10 uM” value was -2.56%. For C=CCNC(=O)CSc1nc(-c2ccc(OC)cc2)cc(C(F)(F)F)n1, the “% Inhibition @ 10 uM” value was 3.88%. O=C1CC(N2CCCCC2)C(=O)N1c1ccc(N2CCCCC2)cc1 (stereo not shown) was tested, and the “% Inhibition @ 10 uM” value was -1.38% and -4.12%. For O=C(COc1ccc(Br)cc1)Nc1ccccc1C(=O)Nc1ccccc1, the “% Inhibition @ 10 uM” value was 1.07%. For CCOC(=O)N1CCC(/N=c2/c(N(CCc3ccccc3)Cc3ccccc3)c(O)c2=O)CC1, the “% Inhibition @ 10 uM” value was -3.21%. For O=C(O)C1CCN(S(=O)(=O)N2CCOCC2)CC1, the “% Inhibition @ 10 uM” value was -0.256%. With O=C(Nc1ccccc1O)/C(=C\c1cccs1)NC(=O)c1ccccc1 the “% Inhibition @ 10 uM” value was 3.46%. With Cc1nn(CC(=O)NCCCN2CCC(N3CCCCC3)CC2)c(=O)c2cccn12 the “% Inhibition @ 10 uM” value was -0.229%. For Cc1cc2ccccc2n1CCNC(=O)c1cc(Br)ccc1Cl, the “% Inhibition @ 10 uM” value was 1.39%. For O=c1/c(=C/c2cccc(F)c2)sc2nc(-c3ccc(F)cc3)nn12, the “% Inhibition @ 10 uM” value was 6.96%. With O=C(O)C1CC=CCC1C(=O)N1CCc2ccccc21 (stereo not shown) the “% Inhibition @ 10 uM” value was -0.318%. For Cc1c(C(=O)OCCOC(C)C)[nH]c2c1C(=O)CC(C)(C)C2, the “% Inhibition @ 10 uM” value was 1.76%. For Cc1nc2nc(NCc3cccs3)nn2c(C)c1Cl, the “% Inhibition @ 10 uM” value was -2.4%. Cc1cc(OCC(=O)N(C)C2CCCCC2)ccc1Cl was tested, and the “% Inhibition @ 10 uM” value was 3.47%. O=C(NCCCc1nc2ccccc2n1CCOc1ccccc1Cl)c1ccco1 was tested, and the “% Inhibition @ 10 uM” value was -2.99%. With O=C1/C(=C\c2ccc(C(F)(F)F)cc2)Cc2ccccc21 the “% Inhibition @ 10 uM” value was 5.5%. With COc1cc(CO)ccc1Oc1nnnn1-c1ccc(C(N)=O)cc1 the “% Inhibition @ 10 uM” value was 0.032%. For COc1cccc2c1OC1(C)CC2C(S(=O)(=O)c2ccc(C)c(C)c2)C(=O)N1C (stereo not shown), the “% Inhibition @ 10 uM” value was 0.953%. For Cc1nc2c(c(C)c1CCC(=O)NCc1ccccn1)c(=O)n(C)c(=O)n2C, the “% Inhibition @ 10 uM” value was 6.84%. For COc1ccc(CNC(=O)CCS(=O)(=O)Cc2ccc(C)cc2)c(OC)c1, the “% Inhibition @ 10 uM” value was -1.21%. With Cc1ccc(-c2nn(CC(=O)NCc3ccccn3)c(=O)c3ccccc23)cc1S(=O)(=O)N(C)C the “% Inhibition @ 10 uM” value was -4.91%. With COc1ccc(-c2[nH]nc3c2C2(C(C#N)=C(N)O3)c3ccccc3-c3ccccc32)cc1 the “% Inhibition @ 10 uM” value was 2.32%. With Cc1ccc(S(=O)(=O)NCC(=O)N2CCCC2C(=O)O)cc1 (stereo not shown) (HELM PEPTIDE1{[Cc1ccc(S(=O)(=O)[*:2])cc1].G.[O=C(O)C1CCCN1[*:1]]}$$$$V2.0) the “% Inhibition @ 10 uM” value was -0.0735%. With COc1cccc(-c2nn(C)c3sc(C(=O)NCc4ccccc4OC)cc23)c1 the “% Inhibition @ 10 uM” value was 2.69%. Cc1nc2c(-c3ccccc3)c(C)nn2c(C)c1CC(=O)NCc1ccccc1Cl was tested, and the “% Inhibition @ 10 uM” value was -0.933%. CC(Oc1cccc2cccnc12)C(=O)O (stereo not shown) was tested, and the “% Inhibition @ 10 uM” value was 6.12%. CCc1cccc(C)c1NC(=O)COc1ccccc1 was tested, and the “% Inhibition @ 10 uM” value was -5.32%. For Cc1cc(C)c(C)c(OCCCN2CCCC2)c1, the “% Inhibition @ 10 uM” value was -1.64%. With O=C1CC(c2ccc(C(F)(F)F)cc2)C2=C(CC(c3cccs3)CC2=O)N1 (stereo not shown) the “% Inhibition @ 10 uM” value was 3.67%. CC(C)Oc1ccc(CNC(=O)Cn2ccc3cc(S(=O)(=O)N4CCCC4)ccc32)cc1 was tested, and the “% Inhibition @ 10 uM” value was 1.76%. In the case of Cc1ccc(OCCCCN2CCCCC2)c(C)c1, the “% Inhibition @ 10 uM” value was -0.351%. With O=C1OC(c2ccc(Br)cc2)=N/C1=C1/OC(=O)c2ccccc21 the “% Inhibition @ 10 uM” value was -6.06%. With CCn1c2ccccc2c2cc(CNc3ccc(F)c(F)c3)ccc21 the “% Inhibition @ 10 uM” value was -0.603%. With COc1ccc(C2/C(=C(\O)OC3CCCCC3)C(C)=Nc3nnnn32)c(OC)c1OC (stereo not shown) the “% Inhibition @ 10 uM” value was -3.13%. In the case of CC1(C)CC(=O)C(=C2NC3(CCCCC3)Cc3ccccc32)C(=O)C1, the “% Inhibition @ 10 uM” value was 1.37%. For Cc1nc2c(c(C)nn2C(C)(C)C)c(C)c1CCC(=O)N(C)Cc1ccccc1, the “% Inhibition @ 10 uM” value was 0.953%. With CC(CNC(=O)c1cc(C2CC2)[nH]n1)c1ccccc1 (stereo not shown) the “% Inhibition @ 10 uM” value was -2.74%. In the case of C=CCC1CCCCC12NC(=O)NC2=O (stereo not shown), the “% Inhibition @ 10 uM” value was 3.82%. For Cc1ccc(NC(=O)CC2SC(Nc3ccc(S(N)(=O)=O)cc3)=NC2=O)cc1 (stereo not shown), the “% Inhibition @ 10 uM” value was 2.22%. With COc1cc(/C=C2/C(=N)N3C=C(C)SC3=NC2=O)ccc1OCc1ccc2c(c1)OCO2 the “% Inhibition @ 10 uM” value was 0.565%. In the case of Cc1ccc(C(=O)N/C(=C\c2ccc(Cl)cc2)C(=O)N2CCOCC2)cc1, the “% Inhibition @ 10 uM” value was -7.02%. For OCCN(CCO)C1Cc2ccccc2C1, the “% Inhibition @ 10 uM” value was -1.5%. In the case of Cc1ccc(NS(=O)(=O)c2ccc(F)cc2)cc1Cl, the “% Inhibition @ 10 uM” value was -0.856%. For Cc1ccc(C(=O)Nc2cccnc2Cl)cc1C, the “% Inhibition @ 10 uM” value was -5.81%. In the case of O=C(c1ccc2nc(N3CCCCC3)sc2c1)N1CCN(C(=O)c2ccco2)CC1, the “% Inhibition @ 10 uM” value was -2.37%. In the case of CCc1ccc(C2NC(=O)c3[nH]nc(-c4ccc(OC)cc4)c32)cc1 (stereo not shown), the “% Inhibition @ 10 uM” value was 1.9%. With CCOc1ccc(C(=O)NCC2CCN(C(=O)c3ccc(OCC)cc3)CC2)cc1 the “% Inhibition @ 10 uM” value was 5%. In the case of Cc1nc2ccccc2cc1C(=O)Nc1ccccc1F, the “% Inhibition @ 10 uM” value was 8.1%.

From paper PMC6919601, “Identification of Plasmodium dipeptidyl aminopeptidase allosteric inhibitors by high throughput screening” (PLoS ONE, 2019)
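Note: 30 min substrate incubation versus DMSO and 10 µM JCP410 controls.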
